Measured values: PubChem BioAssay AID463173 (ICCB-Longwood Screening Facility, Harvard Medical School, 2010)
About 4,300 (8.3%) of roughly 52,000 compounds were called active. Rule as the data show it: active = survival mostly below about 52% (no sharp cut-off); inactive = mostly above about 56%. This is one part of the list.

tested on: DeltatarO mutant; test: S. aureus survival, RN4220 and DeltatarO strains – OD600, teichoic acid synthesis inhibitors, primary screen (AID 463173); settings: S. aureus RN4220 wild type/DeltatarO growth, OD600, 18 h, hits give low values, screened at 18.75 µg/mL (by protocol)

Row | Compound | survival
1 | CCOC(=O)c1ccc(N2C(=O)c3n[nH]c(-c4ccco4)c3C2c2ccccc2OC)cc1 (stereo unspecified) | inactive: 53%
2 | COc1ccc(NC(=O)c2ccco2)cc1NC(=O)c1ccccc1[N+](=O)[O-] | inactive: 49%
3 | Cc1ccc(NC(=O)Cn2c(=O)n(Cc3ccccc3)c(=O)c3c(C)c(C(=O)N(C)C)sc32)c(C)c1 | inactive: 78%
4 | COc1ccc(-c2noc(CN(C(=O)c3ccc(C)cc3C)C(C)C)n2)cc1 | active: -3%
5 | Cc1ccc(C(=O)NCCc2csc(-c3cccc(F)c3)n2)cc1C | inactive: 99%
6 | CCN(C(=O)c1c(C)oc2ncnc(N3CCCCC3)c12)c1cc(C)ccc1C | inactive: 95%
7 | COc1ccc(C2CC(=O)Nc3c2c(C)nn3-c2nncc(-c3ccccc3)n2)c(OC)c1OC (stereo unspecified) | inactive: 52%
8 | COc1cc2nc(NCCc3cccc(C)c3)n3nc(-c4ccccc4)nc3c2cc1OC | inactive: 59%
9 | CCOC(=O)c1cccc(NC(=O)COc2ccc3c(C)cc(=O)oc3c2)c1 | inactive: 70%
10 | CCOC(=O)c1cnc2c(ccc3ccccc32)c1Nc1ccccc1O | inactive: 69%
11 | Cc1cc(=O)n2nc(N3CCC(C(=O)Nc4ccc(Br)c(C)c4)CC3)sc2n1 | inactive: 102%
12 | CCOC(=O)CSc1nc(-c2cccnc2)nn1C(=O)c1ccccc1 | inactive: 79%
13 | COCCNC(=O)c1ccc(Cn2c(SCC(N)=O)nc3ccccc3c2=O)cc1 | inactive: 115%
14 | COc1ccc2[nH]c(=O)c(CN(Cc3ccc4c(c3)OCO4)Cc3nnnn3CCc3ccccc3)cc2c1 | inactive: 103%
15 | Cn1c(SCc2ccc(F)cc2)nc2ccc(C(=O)NCc3cccc(Cl)c3)cc21 | active: 56%
16 | COc1cccc(OCCSc2nc3ccccc3n2CC(=O)N2CCOCC2)c1 | active: 44%
17 | COc1ccc2c(CNC3CCC(C)CC3)c(C(=O)O)n(Cc3ccc(F)cc3)c2c1 (stereo unspecified) | inactive: 70%
18 | Cc1ccc(N(Cc2cccs2)C(=O)c2ccc(OC(C)C)cc2)cc1 | inactive: 95%
19 | CCOc1ccccc1C(=O)NCc1ccc2c(c1)CCN2C(=O)c1ccc(F)cc1 | inactive: 78%
20 | Cc1cccc(CNC(=O)C2CCN(c3nn4cc(-c5ccc(F)cc5)nc4s3)CC2)c1 | active: 47%
21 | COc1ccc(-n2ncc(C(=O)NCc3cccs3)c2C2CCN(C(=O)OC(C)(C)C)CC2)cc1 | inactive: 89%
22 | CCc1ccccc1N(CC)C(=O)c1cc2c(s1)-c1ccccc1SC2 | active: -1%
23 | O=C(Cc1ccc(Cl)cc1)NC1CC(=O)N(c2ccc3c(c2)OCCO3)C1 (stereo unspecified) | inactive: 85%

Row | Compound | survival
24 | Cc1cc(C)cc(NC(=O)NCc2noc3ccccc23)c1 | inactive: 52%
25 | CCOc1ccccc1C(=O)Nc1cccc(-c2nc3ccccc3s2)c1 | active: 41%
26 | CC1=C(C#N)c2nc(N)c(C#N)c(C)c2/C1=C\C=C\c1ccccc1 | inactive: 112%
27 | COc1ccccc1/C=C/c1nc(C#N)c(NCc2ccccc2)o1 | inactive: 83%
28 | COc1ccc(-c2cn3c(n2)sc2cc(C(=O)NCCc4ccccc4)ccc23)cc1 | inactive: 86%
29 | O=C(OCc1cc(=O)n2nc(C3CC3)sc2n1)c1cccc(NC(=O)c2ccccc2Cl)c1 | inactive: 90%
30 | Cc1ccc(C)c(NC(=O)c2cnc(N3CCCC3)nc2C)c1 | inactive: 94%
31 | CC(Nc1oc(-c2ccc(COc3ccccc3)o2)nc1C#N)c1ccccc1 (stereo unspecified) | inactive: 54%
32 | Cc1cccc(-n2ncc3c(NCCOCCO)ncnc32)c1 | inactive: 71%
33 | O=C(CSc1nc2ccccc2c(=O)n1Cc1ccco1)Nc1ccccc1 | inactive: 84%
34 | O=C(CSc1nc2c([nH]c3ccccc32)c(=O)n1-c1ccccc1F)Nc1cccc(Cl)c1 | inactive: 74%
35 | CCC(=O)N1CCc2cc(S(=O)(=O)CCC(=O)Nc3cc(Cl)ccc3OC)ccc21 | inactive: 80%
36 | COc1cccc(N2CC(NC(=O)/C=C\c3ccccc3)CC2=O)c1 (stereo unspecified) | inactive: 98%
37 | CCOc1ccc(-c2cn3c(n2)sc2cc(C(=O)NC(C)C45CC6CC(CC(C6)C4)C5)ccc23)cc1 (stereo unspecified) | inactive: 115%
38 | Cc1cc(C)nc(Oc2ccc(Br)cc2Br)n1 | inactive: 102%
39 | CCOc1ccc(C(c2c(O)cc(C)n(Cc3ccco3)c2=O)N2CCN(C)CC2)cc1 (stereo unspecified) | inactive: 69%
40 | CC1CCN(C(=O)Cn2cc(SCC(=O)NCc3ccccc3)c3ccccc32)CC1 | inactive: 63%
41 | CCc1nnc(NC(=O)c2nc(SCc3cccc(C)c3)ncc2Cl)s1 | active: 5%
42 | O=S(=O)(c1ccccc1)n1nc(-c2ccco2)nc1NCc1ccccc1 | inactive: 71%
43 | CCC(Sc1nnc(-c2ccc(F)cc2)c(-c2ccc(F)cc2)n1)C(=O)NC1CCCC1 (stereo unspecified) | inactive: 75%
44 | N#C/C(=C\Nc1cccc(C(F)(F)F)c1)C(=O)N1CCOCC1 | inactive: 98%
45 | Cn1nnc2cc(C(=O)N3CCCCCC3)ccc21 | inactive: 74%
46 | CCCOc1ccc(C2C(=O)N(C3CCCCC3)CC(=O)N2C2CCCCC2)cc1OC (stereo unspecified) | inactive: 91%

Row | Compound | survival
47 | O=C(COCc1cc(-c2ccc(F)cc2)on1)Nc1cccc(C(F)(F)F)c1 | inactive: 72%
48 | COc1ccc(Cn2c(CO)cnc2SCc2ccccc2)cc1 | inactive: 89%
49 | Cc1ccc(-n2c(=O)c3c(C)c(C(=O)N(C)C)sc3n(Cc3ccccc3C)c2=O)cc1C | inactive: 98%
50 | Cc1cccc(Nc2nc(-c3ccccc3)nc3ccccc23)c1 | active: 1%
51 | O=C(c1cc2sccc2n1Cc1ccccc1)N1CCCC1 | inactive: 78%
52 | Cc1cccc(Cn2c(CN3CCC(C(=O)NC(C)C)CC3)cc3ccccc32)c1 | inactive: 74%
53 | COc1ccc(CNC(=O)C2CCN(S(=O)(=O)c3cccc(-c4noc(C)n4)c3)CC2)cc1 | inactive: 92%
54 | CCOc1ccc(CNC(=O)c2cc3c(=O)oc4ccc(C)cc4c3s2)cc1 | inactive: 72%
55 | COc1ccc(C2C(C(=O)Nc3ccccc3)=C(C)Nc3nc(-c4ccc(Cl)cc4)nn32)cc1 (stereo unspecified) | inactive: 98%
56 | Cc1ccccc1CNCCCSc1nnnn1C | inactive: 76%
57 | Cc1ccc(NC(=O)CSCc2cc(=O)c3ccccc3[nH]2)c(C)c1 | inactive: 116%
58 | CCOC(=O)NNC(=O)C1CCC(C)CC1 (stereo unspecified) | inactive: 55%
59 | CC(C)Oc1ccc(CNC(=O)c2cnc3sc(N4CCCC4)nn3c2=O)cc1 | inactive: 94%
60 | Cc1oc2c(c1C(=O)NCc1ccccc1F)C1=NCCN1C=N2 | inactive: 89%
61 | O=C(NCC(c1ccc2c(c1)OCO2)N1CCN(c2ccccc2)CC1)C(=O)Nc1ccccc1F (stereo unspecified) | inactive: 82%
62 | Cc1cccc2c(=O)c(N)c[nH]c12 | inactive: 105%
63 | O=S(=O)(NCCCO)c1ccc2c(c1)Cc1cc(S(=O)(=O)NCCCO)ccc1-2 | inactive: 71%
64 | COC(=O)c1cc2c(=O)n3ccccc3nc2n(CCN2CCOCC2)c1=N | inactive: 87%
65 | CCOc1ccc(NC(=O)CC2C(=O)N(c3ccc(OC)cc3)C(=O)N2CCC2=CCCCC2)cc1 (stereo unspecified) | inactive: 71%
66 | CCN(CC)C(=O)Cn1ncc2c([nH]c3ccccc32)c1=O | inactive: 118%
67 | COc1cccc(N2CCN(C(=O)c3ccc4nc(N5CCC(C)CC5)sc4c3)CC2)c1 | inactive: 62%
68 | CCN1C(=O)C2C(c3ccc(F)cc3)NC(CCSC)(C(=O)OC)C2C1=O (stereo unspecified) | inactive: 54%
69 | CCOC(=O)c1cnc2ccc(C(=O)OC)cc2c1Nc1ccc(OCc2ccccc2Cl)cc1 | inactive: 151%

Row | Compound | survival
70 | CC(=O)Nc1cccc(-c2nnc(SCC(=O)c3cc([N+](=O)[O-])ccc3Cl)o2)c1 | inactive: 74%
71 | COc1ccccc1-c1nn(CCC(=O)Nc2ccc(C)cc2)c2nc(C)cc(C)c12 | inactive: 53%
72 | CCN1CCN(CCCNC(=O)Cn2nc(C)n3c(cc4c(OC)cccc43)c2=O)CC1 | inactive: 103%
73 | Cc1ccccc1NC(=O)CSc1ccc(-c2ccccn2)nn1 | inactive: 112%
74 | CC1=C(C(N)=O)C(c2ccc(C)cc2)n2nc(SCc3ccccc3)nc2N1 (stereo unspecified) | inactive: 112%
75 | O=C(NCc1ccccc1Cl)C1=Cc2cc(Br)ccc2OC1 | inactive: 112%
76 | Cc1cc(C)cc(NC(=O)C(=O)NCCc2sc(-c3cccc(F)c3)nc2C)c1 | inactive: 80%
77 | O=C(CSc1nc2ccccc2c(=O)n1C1CCCCC1)NCc1ccco1 | inactive: 100%
78 | CC(=O)Nc1ccc(NC(=O)c2ccc3c(c2)CCN3S(=O)(=O)c2ccc(C)cc2)cc1 | inactive: 62%
79 | COc1ccc(C)cc1NC(=O)N(C(C)C)C1CCN(C(C)=O)CC1 | inactive: 75%
80 | O=C(O)c1cc(-c2ccccc2)nn1Cc1ccccc1 | inactive: 73%
81 | COc1ccc(C(C)=O)cc1CSc1nc(Nc2ccc(F)c(F)c2)c2ccccc2n1 | active: 25%
82 | Cc1ccc(-c2nnc3ccccc3c2C(=O)Nc2ccc(F)cc2)cc1 | inactive: 100%
83 | COc1ccccc1Nc1nn2c(=O)c3ccc(C(=O)NCCc4ccccc4)cc3nc2s1 | inactive: 78%
84 | Cc1ccc(-n2c(=O)c3c(cnn3C)n(CC(=O)Nc3cccc(Cl)c3)c2=O)cc1 | active: 55%
85 | CCC(C(=O)NCCc1ccc(OC)c(OC)c1OC)n1nc(C)c2sc3ccccc3c2c1=O (stereo unspecified) | inactive: 103%
86 | CCc1ccccc1NC(=O)CCn1cccn1 | inactive: 135%
87 | Cc1ccc(CSc2nc3ccccc3c3nc(CCn4c(C)nc5ccccc54)nn23)cc1 | inactive: 90%
88 | O=C(Nc1cccc2ccccc12)OCCn1nnnc1CN1CCOCC1 | inactive: 97%
89 | Cc1cc(C)cc(NC(=O)C(C)N2Cc3ccccc3C2=O)c1 (stereo unspecified) | inactive: 91%
90 | Cc1ccc(C)c(N2CCN(CCCNC(=O)c3cnn(-c4cccc(Cl)c4)c3C3CCN(C(=O)OC(C)(C)C)CC3)CC2)c1 | active: 52%
91 | CCOc1ccc(NC(=O)c2ccc3c(=O)n4c(nc3c2)CCCCC4)cc1 | inactive: 139%
